Reference: patent US8933202B2, “AXL antibodies” (U3 Pharma GmbH, priority 2007, dated 2015)

B1: 11D5: antagonistic rat anti-AXL monoclonal antibody, rat IgG2a (antibody)
heavy: EVQLQESGPGLVKPSQSLSLTCSVTGYSITSNYWGWIRKFPGNKMEWIGHITNSGNTTYNPSLKSRISISRDTSRNQFFLQLNSVTTEDTATYYCAKGAFDYWGQGVMVTVSS[left out - human IgG1 constant region]
light: DIQMTQSPSSMSTSLGDRVTITCRASQDIGNYLSWFQQKVGKSPRRMIYGAIKLAVGVPSRFSGSRSGSDYSLTISSLESEDMAIYYCLQYIQFPLTFGSGTKLELKRTVAAPSVFIFPPSDEQLKSGTASVVCLLNNFYPREAKVQWKVDNALQSGNSQESVTEQDSKDSTYSLSSTLTLSKADYEKHKVYACEVTHQGLSSPVTKSFNRGEC
modifications: 11D5 HC gamma1; 11D5 LC kappa
notes: antagonistic rat anti-AXL monoclonal antibody, rat IgG2a
B2: ch11B7: chimeric anti-AXL antibody, derivative of rat 11B7 (antibody)
heavy: EVQLQESGPGLVKPSQSLSLTCSVTGYSITSNYWGWIRKFPGDKMEWMGYITYSGSTSYNPSLKSRISITRDTSKNQFFLQLNSVTSEDTATYYCAITTFYYWGQGVMVTVSS[left out - human IgG1 constant region]
light: DIQMTQAPSSLPASLGDRVTITCRASQDIGNYLRWFQQKPGKSPRLMISGATNLAAGVPSRFSGSRSGSDYSLTISSLESEDMADYYCLQSKESPWTFGGGTKLELKRTVAAPSVFIFPPSDEQLKSGTASVVCLLNNFYPREAKVQWKVDNALQSGNSQESVTEQDSKDSTYSLSSTLTLSKADYEKHKVYACEVTHQGLSSPVTKSFNRGEC

Assays:
[1] = test system: NCI-H292 lung cancer cells; experiment: Wound healing/scratch assay; format: cell-based, human; settings: 10 μg/ml antibody, 24 h, compared to isotypic control antibody
Text: To examine the migration and proliferation rates of different cells and culture conditions, in vitro wound healing/scratch assays are being employed for many years. These assays generally involve growing a confluent cell monolayer first. A small area is then disrupted and a group of cells are being destroyed or displaced by scratching a line through the layer with, for example, a pipette tip. The open gap is then inspected microscopically over time as the cells move in and fill the damaged area (“healing”). In brief, 1.5×10^6 NCI-H292 lung cancer cells were seeded per well of a 12 well dish and cultured in normal growth medium (RPMI, 10% FCS). After 8 h, cells were rinsed with PBS and starved in low serum medium (RPMI, 0.5% FCS) over night for 24 h. Using a sterile 200 μl pipette tip, three separate uniform wounds per well were scratched through the confluent NCI-H292 cell monolayers. […] Cells were permitted to migrate into the area of clearing for 24 h, washed once with PBS and fixed with ice cold Methanol (100%) at −20° C. After cells were stained with crystal violet (0.5% in 20% Methanol), rinsed with water and dried over night, photos of the wounds were taken.

Akt-Kinase = Akt-Kinase (Ser473) phosphorylation ELISA; format: cell-based; settings: 400 ng/ml Gas6; for ligand-mediated Akt-Kinase activation, rat versus chimeric antibody: 50 ng/ml to 1 μg/ml (11B7, ch11B7) or to 10 μg/ml (11D5, ch11D5), NIH3T3-AXL cl.7
Experimental: Furthermore, ELISA experiments were performed in order to investigate whether the rat anti-AXL antibodies of the invention are able to block ligand Gas6-mediated activation of Akt-Kinase. Gas6-mediated Akt-Kinase activation was detected by increased protein (Ser473) phosphorylation. In brief, on day 1. 2×10^4 cells per well were seeded in flat-bottom 96 well plates. The next day, normal growth medium was replaced by serum-reduced (DMEM, 0.5% FCS for NIH3T3-AXL cl.7 fibroblasts) or serum-free (for cancer cell lines) medium to starve cells for 36 h. […] Medium was flicked out and cells were fixed with 4% formaldehyde in PBS (pH 7.5) for 30 min at room temperature. Formaldehyde solution was removed and cells were washed twice with wash buffer (PBS, 0.1% Tween 20). Cells were quenched with 1% H2O2, 0.1% NaN3 in wash buffer and incubated for 20 min at room temperature. Afterwards, the quenching solution was removed, and cells were washed twice with wash buffer and blocked with PBS, 0.5% BSA for 4 h at 4° C. Anti-phospho-Akt (Ser473) primary antibody (polyclonal rabbit; Cell Signaling #9271) diluted 1:500 in PBS, 0.5% BSA, 5 mM EDTA was added over night at 4° C. On day 4, the antibody solution was removed and the plate was washed 3× with wash buffer. HRP-conjugated anti-rabbit secondary antibody (Dianova #111-036-045) diluted 1:2,500 in PBS, 0.5% BSA was then added to each well and incubated for 1.5 h at room temperature. The plate was washed 3× with wash buffer and twice with PBS for 5 min each. Tetramethylbenzidine (TMB, Calbiochem) was added and monitored at 620 nm.
In order to investigate whether the rat anti-AXL antibodies of the invention and the corresponding chimeric anti-AXL antibodies of the invention were able to block ligand Gas6-mediated activation of the Akt-Kinase in NIH3T3-AXL cl.7 fibroblasts to similar extent, ELISA experiments were performed. Antibody-mediated Akt-Kinase inhibition was detected by decreased protein (Ser473) phosphorylation. In brief, on day 1. […] Tetramethylbenzidine (TMB, Calbiochem) was added and monitored at 620 nm.

[2] = test system: serum-starved NIH3T3-AXL cl.7 fibroblasts; experiment: Caspase-3/7 assay, Gas6-mediated anti-apoptosis; format: cell-based; settings: 10 μg/ml antibody, with or without 400 ng/ml Gas6, compared to isotypic control antibody
Text: Induction of apoptosis and activation of caspases can result from a variety of stimuli including growth factor withdrawal, exposure to chemotherapeutic agents or radiation, or initiation of the Fas/Apo-1 receptor-mediated cell death process. […] In the present example we examined whether rat anti-AXL antibodies of the invention interfere with Gas6-mediated anti-apoptosis of serum-starved NIH3T3-AXL cl.7 fibroblasts, and thus induce apoptosis. Apoptosis rates were thereby determined by measurement of the cellular caspase-3/7 activity. For this purpose, NIH3T3-AXL cl.7 cells were seeded at a density of 1.5×10^3 cells per well in black clear-bottom 96 well plates (100 μl/well). The day after, normal growth medium was replaced by serum-reduced medium (DMEM, 0.5% FCS) to starve cells over night for 24 h. […] The cells were washed with PBS, covered with 60 μl of DMEM, 0% FCS, 0.01% BSA, and 10 μl of the respective antibody solution were added. After 1 h incubation at 37° C., 10 μl of DMEM, 0% FCS, 0.01% BSA with or without 3.2 μg/ml mouse Gas6 (R&D Systems) were added (the final concentrations of antibody and Gas6 were 10 μg/ml and 400 ng/ml, respectively), and cells were incubated at 37° C. for another 5 h. […] Using a Victor plate reader (Perkin Elmer), the fluorescence of each well was measured at an excitation wavelength of 485 nm and an emission wavelength of 530 nm.

| Molecule | re-population of the cleared area (wound closure) [1] | ligand-mediated Akt-Kinase activation, rat versus chimeric antibody (Akt-Kinase) | ligand-mediated Akt-Kinase activation (phosphorylation) (Akt-Kinase; 10 μg/ml antibody, NIH3T3-AXL cl.7 fibroblasts and CaLa-1 lung cancer cells) | anti-apoptosis (caspase-3/7 activity) [2] |
| --- | --- | --- | --- | --- |
| B1 | reduced the re-population of the cleared area | able to inhibit ligand-mediated Akt-Kinase activation to similar extent | able to block or reduce ligand-mediated Akt-Kinase activation | reduced Gas6-mediated anti-apoptosis |
| B2 |  | able to inhibit ligand-mediated Akt-Kinase activation to similar extent |  |  |
